Experimental data as given in PubChem BioAssay AID686971 (National Center for Advancing Translational Sciences (NCATS), 2013).
The campaign covered roughly 360,000 compounds. About 7,500 (2.1%) were called active. Inconclusive results, whose numbers are uncertain, are shown with a selection of clear calls. Calls follow the shape of the dose curve; as a rule, active = well fitted cell-killing curve with a large enough effect; inconclusive = small, poorly fitted or top-dose-only effect, or effect the other way, or another doubt; inactive = no such curve, though single readings can be large or run the other way. No potency is given beside an inconclusive call; the fits are too rough.

Assay: qHTS for induction of synthetic lethality in tumor cells producing 2HG: qHTS for the HT-1080-IDH1KD cell line;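 as to activity, negative = toxicity: 0% = DMSO wells and -100% = cell-free medium wells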
Conditions: HT-1080 IDH1 knockdown viability, ATP luminescence, 48 h; activity, negative = toxicity: at 46.1 µM (top of the series) unless noted
Method in brief: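 Cytotoxicity counter-line: IDH1KD HT-1080, 48 h, CellTiter-Glo. Curves classed by r2, magnitude and activity.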
Potency is read from the fitted curve at half-maximal effect; tags tell the direction and shape of the fitted curve.

Row | Structure (SMILES) | Potency | activity, negative = toxicity
1 | CCOc1cc2[nH]c(=O)n(Cc3ccc(C(=O)NCCCN4CCC(C)CC4)cc3)c(=O)c2cc1OCC | inconclusive [cytotoxic, single point] | –
2 | Cc1c(Cc2c(Cl)cccc2Cl)c(=O)ccn1C(C)c1ccccc1 (stereo unspecified) | – | inconclusive: -30.6% [cytotoxic]
3 | CCOC(=O)c1c(C)[nH]c(C)c1S(=O)(=O)NCCN1CCN(c2cc(Cl)ccc2C)CC1 | inconclusive [cytotoxic, single point] | –
4 | Cc1ccc2c(Cl)cc(Cl)c(OCC(=O)Nc3cccc(S(N)(=O)=O)c3)c2n1 | inconclusive [cytotoxic, single point] | –
5 | Cn1cccc1Cc1nnc(SCC(=O)N2CCCC2)n1CCc1ccccc1 | inactive | –
6 | CN(C)S(=O)(=O)c1ccc(Cl)c(C(=O)NC2CCCCCCC2)c1 | – | inconclusive: -10.9% [cytotoxic]
7 | COc1cccc(-c2cc(C(=O)N3CC4(C)CC3CC(C)(C)C4)no2)c1 (stereo unspecified) | inconclusive [cytotoxic, single point] | –
8 | N#CCCn1cc(/C=N/O)c(-c2ccc(-c3ccccc3)cc2)n1 | inconclusive [cytotoxic, single point] | –
9 | CCOC(=O)c1sc(Nc2nc3c(OC)cccc3s2)cc1C | inconclusive [cytotoxic, partial curve] | –
10 | COc1ccc(CN(CCC(c2ccc(F)cc2)C2CCOC(C)(C)C2)C(=O)c2ccco2)cc1 (stereo unspecified) | active: 25.9 µM | –
11 | Cc1ccc2nnn(Cc3cccc(C(C)(C)C)c3O)c2c1 | inconclusive [cytotoxic, single point] | –
12 | Cc1cc2nc(C3CCN(Cc4nnnn4Cc4ccccc4)CC3)[nH]c2cc1C | inconclusive [cytotoxic, full curve] | –
13 | O=C1NC[C@H](Cc2ccccc2)N(C[C@@H]2CCCN2C[C@H](Cc2ccc(O)cc2)N2C[C@H](Cc3ccccc3)N(CC3CCCCCC3)C(=O)C2=O)C1=O | inconclusive [cytotoxic, single point] | –
14 | Cc1ccc2c(c1)N(CCC(=O)NCCCN1CCCC1)C(=O)C(C)O2 (stereo unspecified) | inactive | –
15 | COc1ccc2[nH]c3c(NCc4ccco4)ncnc3c2c1 | inconclusive [cytotoxic, single point] | –
16 | COc1ccc(CN2CCNC(=O)C2CC(=O)NCc2cnn(C)c2)cc1OC (stereo unspecified) | inactive | –
17 | CCN(CC)CCNC(=O)c1ccc(NC(=O)c2cc(S(=O)(=O)N3CCCCC3)ccc2N2CCOCC2)cc1 | inactive | –
18 | O=C(COC(=O)c1ccc(Br)c(S(=O)(=O)N2CCOCC2)c1)NCCc1ccccc1 | inactive | –
19 | CN=C1c2cc3cc(OC)ccc3n2CCN1Cc1ccccc1 | active: 23.1 µM | –
20 | CC(=O)Nc1ccc(CC(=O)NCCC(c2ccccc2)c2ccccc2)cc1 | active: 32.6 µM | –
21 | COc1cccc(-c2cnc3c(NC=O)cc(-c4ccc(O)c(OC)c4)cn23)c1 | inconclusive [cytotoxic, partial curve] | –
22 | CN(C)CCCn1c(=O)n(Cc2ccccc2)c(=O)c2c3c(sc21)CCCCC3 | active: 25.9 µM | –
23 | CC(=O)Nc1ccc(S(=O)(=O)N2CCSC2c2ccc(Cl)cc2)cc1 (stereo unspecified) | inconclusive [cytotoxic, partial curve] | –
24 | Cc1ccc2sc(N(CCCN(C)C)C(=O)c3ccc(S(=O)(=O)N(C)C4CCCCC4)cc3)nc2c1C | inconclusive [cytotoxic, single point] | –

Row | Structure (SMILES) | Potency | activity, negative = toxicity
25 | Cc1[nH]c(-c2ccc3c(c2)OCO3)nc1C(=O)O | inconclusive [cytotoxic, single point] | –
26 | Cc1cc(Cl)c(OCCCNC2CCCC2)c(Br)c1 | active: 20.6 µM | –
27 | Cc1cccc(C(=O)Nc2ccccc2SCC(=O)Nc2ccc(C)c(Cl)c2)c1 | – | inconclusive: -30.3% [cytotoxic]
28 | Cc1cc(C)nc(NS(=O)(=O)c2ccc(NC(=O)CSc3ncn[nH]3)cc2)n1 | inconclusive [rising, single point] | –
29 | Cc1ccc(NC(=O)c2sc3nc(CCl)[nH]c(=O)c3c2C)c(C)c1 | – | inconclusive: -73.9%
30 | O=C(NCCOc1ccccc1)N1[C@H]2CC[C@@H]1C=C(c1ccc(F)cc1OCc1ccccc1)C2 | inconclusive [cytotoxic, single point] | –
31 | Cc1cc(C(=O)c2cnc(/N=C/N(C)C)s2)c(F)cc1Cl | inactive | –
32 | COc1ccc(CCNc2nnc(Sc3nnnn3-c3ccccc3)s2)cc1OC | active: 2 µM | –
33 | CCn1c(CNC(=O)Cc2ccc(OC)cc2)nnc1SCC(=O)NC1CCCCC1 | inactive | –
34 | CCN1CCC(O)(/C=C/c2ccc(C(C)C)cc2)C(C(=O)/C=C/c2ccc(C(C)C)cc2)C1 (stereo unspecified) | active: 20.6 µM | –
35 | C/C(=N\NC(=S)NC(C)C)c1ccc(C(C)(C)C)cc1 | active: 16.4 µM | –
36 | CN(C)c1ccc(CNC(=O)C2(C)Cc3c(-c4ccc5c(c4)OCO5)ccnc3O2)cc1 (stereo unspecified) | inconclusive [cytotoxic, full curve] | –
37 | Cc1ccc(C(=O)Nc2ccc(C(=O)N/N=C/c3ccccn3)cc2)cc1 | inconclusive [cytotoxic, partial curve] | –
38 | N#C/C(=C\c1ccc(O)c(O)c1)C(=O)Nc1ccccc1 | inconclusive [cytotoxic, partial curve] | –
39 | CCOC(=O)C1(CCCc2ccccc2)CCN(C(=O)C2=C(C)OCCO2)CC1 | inconclusive [cytotoxic, partial curve] | –
40 | O=[N+]([O-])c1ccc(Cl)cc1Sc1cccc2cccnc12 | inactive | –
41 | Cc1nc2ccc(NC(=O)c3ccccc3)cc2c(=O)n1Cc1ccc(F)cc1 | inconclusive [cytotoxic, single point] | –
42 | Cc1ccc(OCC(=O)N2CCCCC2C)c([N+](=O)[O-])n1 (stereo unspecified) | inactive | –
43 | Cc1cccc(Cc2c(C)nc3c(C(=O)NCc4ccco4)cnn3c2C)c1 | inconclusive [cytotoxic, single point] | –
44 | Cc1ccc(NC(C)c2cc(Cl)ccc2O)cc1 (stereo unspecified) | inactive | –
45 | O=C(CCCCCn1c(=S)[nH]c2ccc(N3CCOCC3)cc2c1=O)NCc1ccccc1 | inactive | –
46 | CCC(C(=O)OCC(=O)Nc1ccc(C)c(S(=O)(=O)N2CCOCC2)c1)c1ccccc1 (stereo unspecified) | inactive | –
47 | Cc1ccc(NC(=O)COC(=O)c2cccc3c2C(=O)c2ccccc2C3=O)c(C)c1 | inconclusive [rising, full curve, poor fit] | –
48 | CC1(c2ccc([N+](=O)[O-])c(CS(=O)(=O)c3ccccc3)c2)OCCO1 | inconclusive [rising, single point] | –

Row | Structure (SMILES) | Potency | activity, negative = toxicity
49 | COc1ccc([C@@]23Oc4cc(OC)cc(OC)c4[C@]2(O)[C@H](O)[C@H](C(=O)N(C)C)[C@H]3c2ccccc2)cc1 | active: 0.164 µM | –
50 | Cc1cccc(OCCCC(=O)NC(C)c2ccccc2)c1 (stereo unspecified) | inactive | –
51 | COC(=O)c1cc(N/C(N)=N/c2nc(C)cc(C)n2)cc(C(=O)OC)c1 | inactive | –
52 | COc1ccc([C@H]2CC(=O)C=C(c3cc(OC)ccc3OC)C2)cc1 | inconclusive [cytotoxic, single point] | –
53 | Cc1noc(C)c1COC(=O)c1csc2c1CCC(C)C2 (stereo unspecified) | inactive | –
54 | Cc1onc(-c2ccccc2Cl)c1C(=O)Nc1nc2ccc(S(C)(=O)=O)cc2s1 | inconclusive [cytotoxic, partial curve, poor fit] | –
55 | Cc1ccc(N(CC(=O)NCCc2ccc(F)cc2)S(=O)(=O)c2ccc(Cl)c([N+](=O)[O-])c2)c(C)c1 | active: 20.6 µM | –
56 | COc1ccc(CN2C(=O)c3cccnc3C2Nc2cc(Cl)ccc2OC)cc1 (stereo unspecified) | inconclusive [cytotoxic, single point] | –
57 | O=C(/C=C/c1ccco1)Nc1scc(-c2ccccc2)c1C(=O)O | inconclusive [cytotoxic, partial curve] | –
58 | CCOC(=O)/C=c1\s/c(=C\c2ccc(C(F)(F)F)cc2)c(=O)n1CC(=O)NCc1ccco1 | – | inconclusive: -31.6% [cytotoxic]
59 | COc1cc(/C=N/NC(=O)c2cc(-c3ccccc3Cl)nc3ccccc23)cc(OC)c1O | inconclusive [cytotoxic, partial curve] | –
60 | O=C(COC(=O)c1cccs1)Nc1cccc(S(=O)(=O)N2CCOCC2)c1 | inactive | –
61 | Cn1c(=O)n(C)c2cc(NS(=O)(=O)c3ccc4c(c3)CCCC4)ccc21 | inconclusive [cytotoxic, partial curve] | –
62 | O=C(NC1CCCCC1)c1ccc2snnc2c1 | inactive | –
63 | COc1ccc(NC(=O)c2nnn(CC(=O)Nc3ccccc3OC)c2N)c(OC)c1 | inconclusive [cytotoxic, single point] | –
64 | OC(c1cccc(CN2CCCCC2)c1)c1ncc(-c2cccc3ccccc23)[nH]1 (stereo unspecified) | inconclusive [cytotoxic, single point] | –
65 | O=C(CN1c2ccccc2S(=O)(=O)c2ccccc21)Nc1ccccc1F | inactive | –
66 | CC(C)CC(=NNC(=O)c1ccncc1)c1cc(Cl)ccc1O | active: 0.82 µM | –
67 | O=C(CSc1ccccc1)Nc1ccc(N2CCOCC2)cc1 | inconclusive [cytotoxic, single point] | –
68 | COC(=O)N/N=C/c1cccc(OCCSc2ccc(Cl)cc2)c1 | inconclusive [cytotoxic, single point] | –
69 | O=C(O)c1ccccc1-c1cn2cc(Cl)ccc2n1 | inactive | –
70 | Cc1ccnc(NC(=S)NC(=O)/C=C/c2ccco2)c1 | inconclusive [cytotoxic, single point] | –
71 | CCOC(=O)N1CCN(C(=O)CCl)CC1 | inconclusive [cytotoxic, single point] | –
